Test results reported in PubChem BioAssay AID504832 (National Center for Advancing Translational Sciences (NCATS), 2011).
Several values for one entry are separate records, joined by “and”; a condition that tells them apart may be missing. Equal values may be shown once. About 18,000 (5.8%) of roughly 310,000 compounds were called active. Inconclusive results, whose numbers are uncertain, are shown with a selection of clear calls. Calls come from the whole dose curve; as a rule, active = well fitted inhibition curve with a large enough effect; inconclusive = small, poorly fitted or top-dose-only effect, or another doubt; inactive = no such curve, though single readings can be large or run the other way. No potency is given beside an inconclusive call; the fits are too rough.

Experiment: Primary qHTS for delayed death inhibitors of the malarial parasite plastid, 48 hour incubation
Conditions: P. falciparum luciferase growth in erythrocytes; series mostly up to 28.7 µM; activity change, negative = inhibition: at the top concentration
Procedure, shortened: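 In quantitative HTS format, infected erythrocytes bearing luciferase-reporter parasites were treated for a single generation at 37 C. Luminescence after adding detection reagent served as the growth measure.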
% is set by controls: 0 for no effect and ±100 for the full control effect; potency is the fitted concentration of half-maximal effect; tags give direction and shape of the fitted curve.

SMILES	Potency	activity change, negative = inhibition
Cc1ccccc1C(=O)N/N=C/c1ccc(Sc2ccccn2)o1	inconclusive [inhibitor, partial curve, poor fit]	–
COc1ccc(CCNC(=O)C2CCC(C(C)(C)C)CC2)cc1OC (configuration not stated)	inconclusive [inhibitor, partial curve]	–
CC(C)C[C@H]1CN=C(Nc2ccccc2)N1CC1CCCC1	inconclusive [inhibitor, full curve, poor fit]	–
Cc1ccc(C(=O)Nc2cccc(C(F)(F)F)c2)cc1Nc1ncnc2nc[nH]c12	active: 13.1 µM	–
CN(c1ccc(OCC(=O)NCCc2ccccc2)cc1)S(=O)(=O)c1ccc(Cl)cc1	active: 8.28 µM	–
O=C(Nc1ccc(N2CCN(C(=O)c3ccccc3)CC2)cc1)c1ccc(Br)o1	inconclusive [inhibitor, single point]	–
Cc1ccc(-n2[nH]c(C)c(C=Nc3ccc(S(=O)(=O)Nc4nccs4)cc3)c2=O)cc1	–	inactive: 1.43%
O=C(NCc1ccccc1)c1c(O)c2ccccc2[nH]c1=O	–	inactive: -5.52%
CC(C)(C)c1ccc(NC(=O)Nc2ccc(F)cc2)cc1	inconclusive [inhibitor, single point]	–
Cc1ccc(S(=O)(=O)NCC23C=CC(O2)C2C(=O)N(c4ccccc4)C(=O)C23)cc1 (configuration not stated)	–	inactive: -11.2%
CCCCNCC#CCOc1cc(C)ccc1C(C)C	inconclusive [inhibitor, single point]	–
CN1CCN(c2ccccc2NC(=O)c2ccccc2F)CC1	–	inactive: -7.84%
O=C(CN1CCCCCC1)Nc1ccccc1F	–	inactive: 5.07%
CC(C)(CO)NCc1cc(Br)ccc1OCc1ccccc1	active: 10.4 µM	–
c1ccc(C2CC(c3cccs3)=NN2c2ccccc2)cc1 (configuration not stated)	active: 10.4 µM	–
CS(=O)(=O)c1nc(S(=O)(=O)c2ccc(Cl)cc2)c(N2CCCCCC2)s1	inconclusive [inhibitor, partial curve]	–
O=C(CN(c1ccc(Cl)c(Cl)c1)S(=O)(=O)c1ccccc1)N1CCc2ccccc2C1	inconclusive [inhibitor, single point]	–
CS(=O)(=O)N(CC(=O)Nc1ccc(S(=O)(=O)N2CCOCC2)cc1)c1ccccc1Br	–	inactive: -22.5%
CCCCCCCC(=O)N/N=C/c1ccco1	inconclusive [inhibitor, partial curve, poor fit]	–
CCCCC(CC)CN=C(N)NC(N)=NCCCCCCN=C(N)NC(N)=NCC(CC)CCCC (configuration not stated)	active: 379 nM and active: 233 nM	–
FC(F)(F)c1ccc(-c2noc(CN3CCCN(C4CCCCC4)CC3)n2)cc1	inconclusive [inhibitor, partial curve, poor fit]	–
CC(C)C[C@H](NC(=O)c1nc[nH]c1C(=O)NC1CCNCC1)C(=O)OC(C)(C)C	inconclusive [inhibitor, single point]	–
COC(=O)CCC(=O)OC1(C)C(=O)C=C2C=C(C3CC3)N(CCc3c[nH]c4ccccc34)C=C2C1=O (configuration not stated)	active: 11.7 µM	–
CCN(CC)S(=O)(=O)c1cccc(C(=O)N[C@H](C(=O)NCc2ccc(Cl)cc2)C(C)C)c1	inconclusive [inhibitor, partial curve, poor fit]	–

SMILES	Potency	activity change, negative = inhibition
C=CCc1c(C)nc(SCc2ccccc2)[nH]c1=O	–	inactive: 9.53%
CCN(CC(=O)Nc1ccc(OC)cc1)C(=O)c1cc(S(=O)(=O)N2CCOCC2)ccc1N1CCCC1	inconclusive [inhibitor, single point]	–
O=C(/C=C/c1cccs1)Nc1ccc([N+](=O)[O-])cc1	–	inactive: 77.8%
Cc1csc(NC(=O)C2COc3ccccc3O2)n1 (configuration not stated)	–	inactive: 50.2%
O=C(CSc1nc2cc(S(=O)(=O)N3CCOCC3)ccc2o1)NC1CCCc2ccccc21 (configuration not stated)	active: 9.28 µM	–
COC(C(=O)Nc1ccc(F)cc1)c1ccccc1 (configuration not stated)	–	inactive: -1.61%
COc1ccc2nc(SCc3ccccc3)nc(C)c2c1	–	inactive: 255%
COc1ccc2oc(C(=O)N3CCN(C(=O)c4ccco4)CC3)c(C)c2c1	inconclusive [inhibitor, partial curve, poor fit]	–
COc1ccccc1N1CCN(C(=O)C2CCCN(S(=O)(=O)c3ccc(C)cc3)C2)CC1 (configuration not stated)	inconclusive [inhibitor, partial curve, poor fit]	–
Cc1ccc(S(=O)(=O)Nc2ccc(N(C)C)cc2)cc1	–	inactive: -11.6%
COc1ccc(/C=C/C(=O)NCC(=O)N/N=C/c2cc(Br)ccc2OCc2ccccc2)cc1	inconclusive [inhibitor, single point]	–
CCOc1ccccc1NS(=O)(=O)c1ccc2c(c1)NC(=O)CCS2	–	inactive: -9.72%
Cc1ccc(C2C(C#N)=C(N)OC3=C2C(=O)CC(C)(C)C3)s1 (configuration not stated)	inconclusive [inhibitor, single point]	–
CN(Cc1ccon1)C(=O)CCc1nnc(Cc2ccc(-c3ccccc3)cc2)o1	–	inactive: -2.31%
COC(=O)c1ccc(OC(=O)c2ccco2)cc1	–	inactive: 26.8%
O=C(Nc1cccc(-c2ccc(N3CCOCC3)nn2)c1)c1ccc([N+](=O)[O-])cc1	inconclusive [inhibitor, partial curve, poor fit]	–
Clc1ccc(Cn2c(-c3cccnc3Cl)nc3ccccc32)cc1	inconclusive [inhibitor, single point]	–
Cc1ccc(NC(=O)c2cc(S(=O)(=O)N3CCOCC3)cn2C)cc1F	inconclusive [inhibitor, partial curve, poor fit]	–
CC1(C)Cc2c(cnn2-c2ccc(F)cc2)C(NC(=O)CCCN2CCCCC2=O)C1 (configuration not stated)	–	inactive: -24.7%
CS(=O)(=O)NC1c2cccc3cccc(c23)C1N1CCOCC1 (configuration not stated)	–	inactive: 5.53%
CCOCCCN(C)C1CCN(C(=O)c2oc3ccccc3c2NC(=O)COc2cccc(C)c2)CC1	inconclusive [inhibitor, single point]	–
Cc1ccccc1C(=O)Nc1ccnn1C1CCN(C(C)Cc2ccccc2F)CC1 (configuration not stated)	inconclusive [inhibitor, single point]	–
Cc1ccc(-n2c3nc(=O)[nH]c(=O)c-3cc3c(C)nn(-c4ccccc4)c32)c(C)c1	inconclusive [inhibitor, single point]	–
